# Measured values reported in the supplement of paper PMC11417369.
# The other results are listed elsewhere or left out.
# System: PF3D7_0420300 AP2 domain 1 (GST-tagged)
# Assay: gcPBM binding intensity (ln(normalized median fluorescence intensity)); higher = stronger DNA binding
# Procedure, shortened: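 GST-tagged P. falciparum DNA-binding domains, expressed in E. coli (about 25 μg on average), were applied for 1 h to an Agilent 4 × 180k array of primer-extended double-stranded 36-bp intergenic genomic probes plus negative controls. The binding buffer was 1× PBS with 1% milk, 0.2 mg/ml BSA, 0.5% salmon testes DNA and 0.03% Triton X-100. Bound protein was detected with Alexa488 anti-GST antibody and scanned at 488 nm. Binding intensity is the highest Masliner-normalised natural-log median intensity across replicate spots of either probe orientation.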
row,Sequence,gcPBM binding intensity (ln)
1,TTACTATTATTATTTTTTATTTTTATTTTATTTATT [TGCATGCA_negctrl_site269],9.5
2,TTAAAAGTAAGCAAAGTGCATATAACAAAAGTAAAG,9.4
3,AATATAAAACTTTAGAGTACTTATCATTAAAATATA [XGTACX_site4509],8.99
4,TAAAATAAAAAAGTAGTACACACTTCACGATATTTT [CACACA_site3896],9.32
5,ATTAATAATGAAAAAAAACACACGGTACATTCAAAG [CACACA_site1302],9.62
6,AAGAAAATGTATATATGTACATACAATCAAAAGAAG [XGTACX_site3454],9.4
7,GAATATTCAACATAATGTACAAGTATTCATTTCTTT [XGTACX_site7860],9.18
8,CAAAAATAAAAGAAATGTACAAAAAATAATAAAAAA [XGTACX_site6597],9.43
9,AAAATTCATAAATACACACACGCACATATATATATA [CACACA_site4227],9.88
10,TAATAAACTTAAAAATGTACATATATTTATTATTAC [XGTACX_site4321],9.19
11,AAATATATATTCATGTGTACACACAAAAAAAAATAA [XGTACX_site4552],9.75
12,AAAAATTTTCAAGTGTGTACATATTTTCATTTAACA [XGTACX_site6186],9.27
13,AAGAAAAAGTATCCTCTATCTTTATATAAACTATTA [TGCATGCA_negctrl_site2],9.02
14,TTTTTATTTAGCTAAGCATGCTAACGATGACACTTC [TGCATGCA_site79],8.86
15,TTTATACTTTTAAATTGTACTATAAAAAGGAATACA [XGTACX_site2537],8.96
16,ATGTATATATTTTTATGTACATATTTTTAATTTATA [XGTACX_site2982],9.2
17,CATACATATACTTTGTGTACATATATATATTATATA [XGTACX_site97],9.16
18,TAATAAAAAATTAAAAAAAATAAAAATAAAAATAAA [GTGCAC_negctrl_site78],9.1
19,AACAATATGGATGTATGTACACATATAGAACGTTAT [XGTACX_site7142],9.64
20,TATGCATTTATGCATTGTACTTTTATAGATTCCACC [XGTACX_site7121],8.84
21,TACAAAAAAAAAGAACGTACAAAAAATTTCAAAAAT [XGTACX_site5860],9.51
22,GAAATTTTATTACTTTTACACACCTATATATTATTC [CACACA_site9076],9.53

row,Sequence,gcPBM binding intensity (ln)
1,ATATTATATATACACGCACACACACTAATATATATA [CACACA_site9092],10
2,TATGTATATATATTAACACACAAAAAAAAAAAAAAA [CACACA_site1812],9.27
3,ATGAACGGAAAAATATATATAAATATATATATCATG [XGTACX_negctrl_site342],8.97
4,TTAAACTATACCAAAACACACATACAAAATATAAAA [CACACA_site5494],9.65
5,TACATGATAGATCACACACACATATAAATATATATA [CACACA_site5562],9.86
6,TAAAATAACTCACAAAGTACAAAAATAAGCATATGA [XGTACX_site7046],9.48
7,ACATAAGACACAAATACACACAAAAATATATAACAA [CACACA_site4082],10
8,AAAATATATTAAGGCACACACATACAGATATATATA [CACACA_site5951],10
9,TACATACACAAATACACACACAAATACATACCCAAA [CACACA_site4550],10
10,TTTTTTCTTTTTTTTTTTTTTTTCTTTTTTTTTTTT [GTGCAC_negctrl_site196],8.99
11,TACGTGAAATTATATACACACATAAATATGGGTGTA [CACACA_site5687],9.29
12,GGTATACTCAAGTATACACACATATATATATATATA [CACACA_site5746],9.29
13,GTATATAAATAAATAGTGCATTATTAAAAATAATGT,9.29
14,TTTTTTTTTTTTTATTGTACATACTTTTAAATATAT [XGTACX_site4303],9.13
15,TATCTCCACAAAAGATGTACTCATATTAATTTATAA [XGTACX_site3535],8.83
16,GTATACAACATATGAACACACAAAATATTTTTTTTT [CACACA_site2928],9.45
17,TTAAAGCTTGCATATACACACATACATAAATTCATA [CACACA_site7208],9.42
18,ATTGAGGCTGGTTATATAATAATTTTATTATTTTAG [GTGCAC_negctrl_site409],9.25
19,ATATATTTATATTTTTGTACCCAAAATTGTTTGATG [XGTACX_site3581],9.2
20,TAAAAGTTGAAGCACACACACAAAAGAAATACAATA [CACACA_site6649],10.1
21,TTTGTTATATTTAATACACACATATTATAAACACAT [CACACA_site7703],9.51
22,TATGAAAAGTAAAGTACACACAGGAAAAAAAAAAAA [CACACA_site1749],9.61

row,Sequence,gcPBM binding intensity (ln)
1,ATAAATAAAGGACACACACACACACTAATAAAAAAA [CACACA_site8840],10.3
2,TATATAATATATTTATGTACTCACAATGGGGTCTAC [XGTACX_site2691],9.21
3,ATATATATATATATATGTACATAATGCATATAATAT [XGTACX_site6142],9.27
4,TTAATACTTTTTTCTGTACACACTTGATTTACTATA [CACACA_site2799],9.63
5,GAAGGAAAAGATACGATAAAATAAGATATTAATTTA [GTGCAC_negctrl_site419],9.05
6,TTCTTCAATATATTCTTACACACTTAAAAAAAAAAA [CACACA_site228],9.08
7,TAAACACCCATACATACACACATACATACACCCATA [CACACA_site5125],9.58
8,GTATTATATTTTAATACACACCCAAATATTAAAAAG [CACACA_site8968],9.48
9,TGCCATCATATCATAGGTACACAAACATATAAAGAA [XGTACX_site4137],9.31
10,AAATGTTCAGAAACTATTATAAAAATGGAATAATAT [CACACA_negctrl_site1544],9.25
11,TAAATATTATATTTATGTACATAAGTTTTTTTTAAT [XGTACX_site3559],9.08
12,CTTAATATGGATATTGCATGTAGAACATGAACAATA [TGCATGCA_site760],8.93
13,TTAACAAATAAATGCACACATATATATAAATAATAT [CACACA_site28],9.47
14,TTATGCTCAAAGAAAAGTACATAAATAAAAGTATAT [XGTACX_site7365],9.11
15,TATATGTAGATTAAACGTACTTACAACGGAATTATC [XGTACX_site3036],9.37
16,GTTCATATAATAAAATGTACATAATATATTATATAT [XGTACX_site7623],9.19
17,AAATTACTGTAAAAAAGTACAGAAGTTCTTATTTTT [XGTACX_site7416],8.98
18,AGTTTAATTTTGTATACACACATTTGAATTATTAAT [CACACA_site7625],9.6
19,AACAAATATGATTTTTTATATATTTTTAAATTTGGT [GTGCAC_negctrl_site189],9.06
20,AGCTACAAAAATTAATATATATATGTATAGTTATAC [TGCATGCA_negctrl_site531],9.2
21,TATATCTATTTCAAATGTACTTATATGATTCTTATA [XGTACX_site6277],9.04
22,AAAAAAAAAATTATATATATATCCCTTATTTTTTCT [TGCATGCA_negctrl_site151],9.14

row,Sequence,gcPBM binding intensity (ln)
1,CATACACAGAAACACACACACATATATACATATATA [CACACA_site1094],10.1
2,TCATATATATTGAAATGTACTTATTTTTTCCTCATA [XGTACX_site6526],9.17
3,TATACATAGAAACACACACACATAAATAAATATATA [CACACA_site1342],10.1
4,CCTTAAATAATATATTCACACAATATAACAAAAATT [CACACA_site4892],9.26
5,TGGTATATAAAACACACACACATATGTATATATATA [CACACA_site926],9.81
6,ACTACGAATGGTAGAGTGCAGTCTGGAGAAGAGTAC [GTGCAC_site9685],9.36
7,GCATACATCAAGCACACACACACACGCACACGCACA [CACACA_site6311],10.3
8,AAAAAAAAGAATTAGGCACACAATTTTAATATAGGA [CACACA_site1522],9.29
9,GTGAAGTTCAAAATATGTACTTATGTATGTATTTTT [XGTACX_site165],9.18
10,TTATGGATGGACAATAATAAAATTTTTACTTTTATT [CACACA_negctrl_site908],9.06
11,TTATGTTTCATAAAAAATTAATCAAACATATATAAG [CACACA_negctrl_site666],8.9
12,AAGCTTAAAAATGGGGGTACGTCATAGGGATTCAAC [XGTACX_site8080],9.36
13,AATATATAAACATATACACACAAAAACATATATATA [CACACA_site4855],10
14,TTTGACACAATATTTTGTACGAAACTATTAATTCAA [XGTACX_site4853],8.92
15,TTGCTTTTCATTTATTGTACATACCCAGTAGGATAA [XGTACX_site3939],9.26
16,GACATAGTATTAAGTTGTACATATATAAAAATAAAT [XGTACX_site1583],9.29
17,ATGTTTTCAAAAATAAAACATATAAATAAATAAATA [TGCATGCA_negctrl_site226],9.05
18,TTACGAATGAATATATGTACATATATATATATATAT [XGTACX_site3790],9.26
19,AATGTACACGCACCCACACACAAACAAATATAAATA [CACACA_site7319],9.81
20,CAACAACAAATGAGAAGTACATAAATATTAACAATA [XGTACX_site4625],9.51
21,TTATAATACCTACAAAGTACAAACTTAAATATGAAC [XGTACX_site5684],9.34
22,ATATGTTTTAAGTGTACACATATAATGTATTTTGTT [CACACA_site4929],9.49
